Assay results from the supplement of paper PMC8728848.
Some of the results follow.

What was measured:
Assay in all cases: glycan array binding signal (z-score within array); higher = stronger binding
Details in all cases: glycan notation: IUPAC condensed, linker removed
[1] = biological target: GlcNAc(a1-4)Gal(b1-4)GlcNAc(b1-3)Gal(b1-4)[Fuc(a1-3)]GlcNAc(b1-3)Gal(b1-4)[Fuc(a1-3)]GlcNAc
Summary of the method: (§1)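 The binding signal is a Z-score computed within each array. Data were drawn from 3228 arrays in the Consortium for Functional Glycomics database, restricted to those with a known protein sequence. Scores were averaged over arrays of the same protein sequence at different concentrations or buffers, and over linkers, and negative values can be taken as non-binding.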

[2] = biological target: GlcNAc(a1-6)Gal(b1-4)GlcNAc
Summary of the method: as §1

[3] = biological target: GlcNAc(b1-2)Gal(b1-3)GalNAc
Summary of the method: as §1

[4] = biological target: GlcNAc(b1-2)Man(a1-3)[GlcNAc(b1-2)Man(a1-6)]Man(b1-4)GlcNAc(b1-4)GlcNAc
Summary of the method: as §1

[5] = biological target: GlcNAc(b1-2)Man(a1-3)[GlcNAc(b1-2)Man(a1-6)]Man(b1-4)GlcNAc(b1-4)[Fuc(a1-6)]GlcNAc
Summary of the method: as §1

GlcNAc(b1-3)Gal = biological target: GlcNAc(b1-3)Gal
Summary of the method: as §1

[6] = biological target: GlcNAc(b1-3)Gal(b1-3)GalNAc
Summary of the method: as §1

GlcNAc(b1-3)Gal(b1-4)Glc = biological target: GlcNAc(b1-3)Gal(b1-4)Glc
Summary of the method: as §1

[7] = biological target: GlcNAc(b1-3)Gal(b1-4)GlcNAc
Summary of the method: as §1

[8] = biological target: GlcNAc(b1-3)Gal(b1-4)GlcNAc(b1-3)Gal(b1-4)GlcNAc
Summary of the method: as §1

GlcNAc(b1-3)GalNAc = biological target: GlcNAc(b1-3)GalNAc
Summary of the method: as §1

GlcNAc(b1-3)Man = biological target: GlcNAc(b1-3)Man
Summary of the method: as §1

[9] = biological target: GlcNAc(b1-3)[GlcNAc(b1-4)][GlcNAc(b1-6)]GlcNAc
Summary of the method: as §1

[10] = biological target: GlcNAc(b1-3)[GlcNAc(b1-6)]Gal(b1-4)GlcNAc
Summary of the method: as §1

[11] = biological target: GlcNAc(b1-3)[GlcNAc(b1-6)]GalNAc
Summary of the method: as §1

[12] = biological target: GlcNAc(b1-4)Gal(b1-4)GlcNAc
Summary of the method: as §1

GlcNAc(b1-4)GlcNAc = biological target: GlcNAc(b1-4)GlcNAc
Summary of the method: as §1

[13] = biological target: GlcNAc(b1-4)GlcNAc(b1-4)GlcNAc
Summary of the method: as §1

[14] = biological target: GlcNAc(b1-4)GlcNAc(b1-4)GlcNAc(b1-4)GlcNAc(b1-4)GlcNAc
Summary of the method: as §1

[15] = biological target: GlcNAc(b1-4)GlcNAc(b1-4)GlcNAc(b1-4)GlcNAc(b1-4)GlcNAc(b1-4)GlcNAc
Summary of the method: as §1

[16] = biological target: GlcNAc(b1-4)[GlcNAc(b1-6)]GalNAc
Summary of the method: as §1

[17] = biological target: GlcNAc(b1-6)Gal(b1-4)GlcNAc
Summary of the method: as §1

GlcNAc(b1-6)GalNAc = biological target: GlcNAc(b1-6)GalNAc
Summary of the method: as §1

GlcNAc3Prop(b1-4)GlcNAc = biological target: GlcNAc3Prop(b1-4)GlcNAc
Summary of the method: as §1

[18] = biological target: GlcNAc6S(b1-3)Gal(b1-4)GlcNAc
Summary of the method: as §1

Kdn(a2-3)Gal(b1-3)GalNAc = biological target: Kdn(a2-3)Gal(b1-3)GalNAc
Summary of the method: as §1

Kdn(a2-3)Gal(b1-3)GlcNAc = biological target: Kdn(a2-3)Gal(b1-3)GlcNAc
Summary of the method: as §1

Kdn(a2-3)Gal(b1-4)Glc = biological target: Kdn(a2-3)Gal(b1-4)Glc
Summary of the method: as §1

Kdn(a2-3)Gal(b1-4)GlcNAc = biological target: Kdn(a2-3)Gal(b1-4)GlcNAc
Summary of the method: as §1

[19] = biological target: Kdn(a2-3)Gal(b1-4)[Fuc(a1-3)]GlcNAc
Summary of the method: as §1

Kdn(a2-6)Gal(b1-4)GlcNAc = biological target: Kdn(a2-6)Gal(b1-4)GlcNAc
Summary of the method: as §1

[20] = biological target: Man(a1-2)Man(a1-2)Man(a1-3)Man
Summary of the method: as §1

[21] = biological target: Man(a1-2)Man(a1-2)Man(a1-6)[Man(a1-3)]Man
Summary of the method: as §1

Man(a1-2)Man(a1-3)Man = biological target: Man(a1-2)Man(a1-3)Man
Summary of the method: as §1

[22] = biological target: Man(a1-2)Man(a1-3)[Man(a1-2)Man(a1-6)]Man
Summary of the method: as §1

[23] = biological target: Man(a1-2)Man(a1-3)[Man(a1-2)Man(a1-6)]Man(a1-6)[Man(a1-2)Man(a1-2)Man(a1-3)]Man
Summary of the method: as §1

[24] = biological target: Man(a1-2)Man(a1-3)[Man(a1-2)Man(a1-6)]Man(a1-6)[Man(a1-2)Man(a1-2)Man(a1-3)]Man(b1-4)GlcNAc(b1-4)GlcNAc
Summary of the method: as §1

[25] = biological target: Man(a1-2)Man(a1-3)[Man(a1-6)]Man(a1-6)[Man(a1-2)Man(a1-3)]Man(b1-4)GlcNAc(b1-4)GlcNAc
Summary of the method: as §1

[26] = biological target: Man(a1-2)Man(a1-6)[Man(a1-3)]Man(a1-6)[Man(a1-2)Man(a1-2)Man(a1-3)]Man
Summary of the method: as §1

[27] = biological target: Man(a1-2)Man(a1-6)[Man(a1-3)]Man(a1-6)[Man(a1-2)Man(a1-2)Man(a1-3)]Man(b1-4)GlcNAc(b1-4)GlcNAc
Summary of the method: as §1

Man(a1-3)[Man(a1-6)]Man = biological target: Man(a1-3)[Man(a1-6)]Man
Summary of the method: as §1

[28] = biological target: Man(a1-3)[Man(a1-6)]Man(a1-6)[Man(a1-2)Man(a1-3)]Man(b1-4)GlcNAc(b1-4)GlcNAc
Summary of the method: as §1

[29] = biological target: Man(a1-3)[Man(a1-6)]Man(a1-6)[Man(a1-3)]Man
Summary of the method: as §1

[30] = biological target: Man(a1-3)[Man(a1-6)]Man(a1-6)[Man(a1-3)]Man(b1-4)GlcNAc(b1-4)GlcNAc
Summary of the method: as §1

B1: CCL2 (Coprinopsis cinerea), B3GA02 (protein)
chain: MDSPAVTLSAGNYIIYNRVLSPRGEKLALTYPGRQRTPVTVSPLDGSSEQAWILRSYDSNSNTWTISPVGSPNSQIGWGAGNVPVVLPPNNYVWTLTLTSGGYNIQDGKRTVSWSLNNATAGEEVSIGADATFSGRWVIEKV
B1 was tested. Which “glycan array binding signal (z-score)” value [1] did it give?
The value was 2.32.

What about the “glycan array binding signal (z-score)” value [2] of the same binder?
The value was -0.285.

What about the “glycan array binding signal (z-score)” value [3] of the same binder?
Its value is -0.277.

And the “glycan array binding signal (z-score)” value [4]?
The value was -0.257.

And the “glycan array binding signal (z-score)” value [5]?
Its value is -0.26.

And the “glycan array binding signal (z-score)” value (GlcNAc(b1-3)Gal)?
Its value is -0.296.

And the “glycan array binding signal (z-score)” value [6]?
Its value is -0.263.

And the “glycan array binding signal (z-score)” value (GlcNAc(b1-3)Gal(b1-4)Glc)?
Its value is -0.293.

And the “glycan array binding signal (z-score)” value [7]?
Its value is -0.291.

And the “glycan array binding signal (z-score)” value [8]?
Its value is -0.284.

And the “glycan array binding signal (z-score)” value (GlcNAc(b1-3)GalNAc)?
Its value is -0.299.

And the “glycan array binding signal (z-score)” value (GlcNAc(b1-3)Man)?
The value was -0.302.

And the “glycan array binding signal (z-score)” value [9]?
Its value is -0.292.

And the “glycan array binding signal (z-score)” value [10]?
Its value is -0.295.

What about the “glycan array binding signal (z-score)” value [11] of the same binder?
Its value is -0.277.

And the “glycan array binding signal (z-score)” value [12]?
The value was -0.297.

And the “glycan array binding signal (z-score)” value (GlcNAc(b1-4)GlcNAc)?
The value was -0.296.

What about the “glycan array binding signal (z-score)” value [13] of the same binder?
Its value is -0.246.

And the “glycan array binding signal (z-score)” value [14]?
Its value is -0.255.

What about the “glycan array binding signal (z-score)” value [15] of the same binder?
The value was -0.245.

And the “glycan array binding signal (z-score)” value [16]?
The value was -0.284.

What about the “glycan array binding signal (z-score)” value [17] of the same binder?
The value was -0.285.

What about the “glycan array binding signal (z-score)” value (GlcNAc(b1-6)GalNAc) of the same binder?
The value was -0.3.

What about the “glycan array binding signal (z-score)” value (GlcNAc3Prop(b1-4)GlcNAc) of the same binder?
Its value is -0.272.

What about the “glycan array binding signal (z-score)” value [18] of the same binder?
The value was -0.286.

What about the “glycan array binding signal (z-score)” value (Kdn(a2-3)Gal(b1-3)GalNAc) of the same binder?
Its value is -0.168.

And the “glycan array binding signal (z-score)” value (Kdn(a2-3)Gal(b1-3)GlcNAc)?
Its value is -0.257.

What about the “glycan array binding signal (z-score)” value (Kdn(a2-3)Gal(b1-4)Glc) of the same binder?
The value was -0.285.

What about the “glycan array binding signal (z-score)” value (Kdn(a2-3)Gal(b1-4)GlcNAc) of the same binder?
The value was -0.286.

And the “glycan array binding signal (z-score)” value [19]?
The value was -0.246.

And the “glycan array binding signal (z-score)” value (Kdn(a2-6)Gal(b1-4)GlcNAc)?
Its value is -0.283.

What about the “glycan array binding signal (z-score)” value [20] of the same binder?
The value was -0.159.

What about the “glycan array binding signal (z-score)” value [21] of the same binder?
Its value is -0.258.

And the “glycan array binding signal (z-score)” value (Man(a1-2)Man(a1-3)Man)?
Its value is -0.287.

And the “glycan array binding signal (z-score)” value [22]?
Its value is -0.278.

And the “glycan array binding signal (z-score)” value [23]?
The value was -0.281.

And the “glycan array binding signal (z-score)” value [24]?
Its value is -0.292.

And the “glycan array binding signal (z-score)” value [25]?
Its value is -0.288.

And the “glycan array binding signal (z-score)” value [26]?
Its value is -0.275.

And the “glycan array binding signal (z-score)” value [27]?
Its value is -0.297.

And the “glycan array binding signal (z-score)” value (Man(a1-3)[Man(a1-6)]Man)?
The value was -0.265.

And the “glycan array binding signal (z-score)” value [28]?
Its value is -0.277.

What about the “glycan array binding signal (z-score)” value [29] of the same binder?
Its value is -0.245.

What about the “glycan array binding signal (z-score)” value [30] of the same binder?
Its value is -0.231.
